About 6,400 (1.6%) of roughly 410,000 compounds were called active. Inconclusive results, whose numbers are uncertain, are shown with a selection of clear calls. Calls follow the shape of the dose curve; as a rule, active = well fitted inhibition curve with a large enough effect; inconclusive = small, poorly fitted or top-dose-only effect; inactive = no such curve, though single readings can be large or run the other way. No potency is given beside an inconclusive call; the fits are too rough.
The molecules below were run against Glucagon-like peptide 1 receptor (Homo sapiens) (UniProt P43220) (assay: qHTS of GLP-1 Receptor Inverse Agonists (Inhibition Mode)). Conditions: HEK293 GLP-1R CRE-luciferase, luminescence, 24 h, GLP-1R form is constitutively active; series mostly up to 38.3 µM.
Summary of the method: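 Using stably transfected HEK293 (constitutively active GLP-1R, cAMP-luciferase reporter), compounds were incubated 24 hr and luciferase measured by luminescence.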
Also: nearly all actives have a fitted effect of over 55% in size.
Potency is read from the fitted curve at half-maximal effect; tags tell the direction and shape of the fitted curve.

Sequence of UniProt P43220 (P43220 whole entry, looked up): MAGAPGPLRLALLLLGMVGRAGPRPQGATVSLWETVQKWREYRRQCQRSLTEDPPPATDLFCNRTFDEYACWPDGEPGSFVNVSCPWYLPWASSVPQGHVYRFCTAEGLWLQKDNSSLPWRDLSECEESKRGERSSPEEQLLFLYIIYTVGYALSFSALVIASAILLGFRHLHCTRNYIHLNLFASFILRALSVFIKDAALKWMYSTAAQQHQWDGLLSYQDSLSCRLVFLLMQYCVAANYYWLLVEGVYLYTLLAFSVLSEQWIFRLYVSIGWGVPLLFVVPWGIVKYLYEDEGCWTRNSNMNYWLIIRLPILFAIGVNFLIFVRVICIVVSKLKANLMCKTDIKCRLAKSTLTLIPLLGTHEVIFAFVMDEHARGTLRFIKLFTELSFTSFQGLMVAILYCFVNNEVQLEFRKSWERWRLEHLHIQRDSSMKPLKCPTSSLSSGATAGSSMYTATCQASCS

SMILES | Potency
CCOC(=O)c1[nH]c(C)c(CCC(=O)NCc2ccc(OC(C)C)cc2)c1C | inconclusive [inhibitor, single point]
O=S(=O)(c1cccs1)N1CN(Cc2ccc(Cl)cc2)c2nc3ccccc3nc21 | inactive
CCC(C(=O)NC(C)c1ccccc1)C(=O)NC(C)c1ccccc1 (stereo not drawn) | inactive
COc1ccc(OC)c(-c2cc(C(=O)Nc3cc(C)on3)no2)c1 | inactive
CCOC(=O)C#CC(CCc1ccccc1)OS(N)(=O)=O (stereo not drawn) | inactive
COc1ccc(CN2CCC(n3nccc3NC(=O)CCOc3ccccc3)CC2)cc1C | inconclusive [inhibitor, single point]
COc1cccc(Cn2cccc(NC(=O)Nc3cccc(C#N)c3)c2=O)c1 | inactive
CSc1cccc(NC(=O)/C=C/c2ccco2)c1 | inactive
COc1cc(CN2CC(=O)N(c3ccc(C)cc3)C2=S)cc(OC)c1OC | inactive
Cc1ccc(Nc2nc(-c3ccc(S(=O)(=O)N4CCCC4)cc3)cs2)cc1C | inconclusive [inhibitor, single point]
CS(=O)(=O)N1N=C(c2cccs2)CC1c1ccc(F)cc1 (stereo not drawn) | inconclusive [inhibitor, single point]
Cc1ccc(NC(=S)NC(=O)C2CCCC2)c(Br)c1 | inconclusive [inhibitor, single point]
CC(C)(C)n1nnnc1C(c1ccccc1)N1CCN(c2ncc(C(F)(F)F)cc2Cl)CC1 (stereo not drawn) | inconclusive [inhibitor, partial curve, poor fit]
CC(C)(C)C(=O)C(CO)(Oc1ccc(Cl)cc1)n1cncn1 (stereo not drawn) | inconclusive [inhibitor, partial curve, poor fit]
Cc1ccccc1C(=O)NC(NC(=S)Nc1ccc(S(N)(=O)=O)cc1)C(Cl)(Cl)Cl (stereo not drawn) | inconclusive [inhibitor, single point]
O=C(/C=C/c1cn(CC(O)CN2CCc3ccccc32)c2ccccc12)c1ccc(Br)cc1 (stereo not drawn) | inconclusive [inhibitor, partial curve, poor fit]
Cc1ccc(-n2c(Cc3cccs3)nnc2SCC(=O)Nc2ccc(F)c(F)c2)cc1 | inconclusive [inhibitor, partial curve, poor fit]
O=C(/C=C1\NC2(CCCC2)Cc2ccccc21)N1CCOCC1 | inconclusive [inhibitor, partial curve, poor fit]
CCc1nc2c(OCCC3CCCCC3)cccn2c1N(C)C(=O)C(C)C | inconclusive [inhibitor, partial curve, poor fit]
O=C1C2C(c3ccccc3)CC=CC2[C@H](c2ccc3ccccc3c2)N1Cc1ccccc1 (stereo partly drawn) | inconclusive [inhibitor, single point]
Cc1ccc(-n2ncc3c2CC(C)(C)CC3NC(=O)c2ccccn2)cc1 (stereo not drawn) | inconclusive [inhibitor, partial curve, poor fit]

SMILES | Potency
COc1ccc(C)cc1NC(=O)Nc1ccccc1SC | inconclusive [inhibitor, single point]
Cc1ccccc1OCCNc1cc(N2CC(C)NC(C)C2)ccc1[N+](=O)[O-] (stereo not drawn) | active: 7.94 µM
O=C(NCCc1csc(-c2ccc(F)cc2)n1)C(=O)Nc1ccc(Cl)cc1 | inactive
CCOC(=O)CN(C(=O)CN1CCC(n2nnc3cc(C)ccc32)CC1)c1ccccc1 | inconclusive [inhibitor, partial curve, poor fit]
COc1ccc(OC)c(/C=N/NC(=O)c2[nH]ncc2Br)c1 | inactive
CC1CC(C)CN(C(=O)CSc2nnc(-c3ccc(F)cc3)o2)C1 (stereo not drawn) | inconclusive [inhibitor, single point]
Cc1nn(-c2ccc(C(=O)N3CCN(S(=O)(=O)c4ccccc4C(F)(F)F)CC3)cc2)c(C)c1Cl | inconclusive [inhibitor, full curve, poor fit]
CCc1nc(N2CCN(C(=O)c3ccco3)CC2)c2c3c(sc2n1)CCCC3 | inconclusive [inhibitor, partial curve, poor fit]
CCN(C[C@H]1N[C@@](CC)(C(=O)OC)[C@H]2C(=O)N(Cc3ccccc3)C(=O)[C@@H]12)C(=O)c1ccc(C(C)(C)C)cc1 | inconclusive [inhibitor, partial curve]
Cc1cccc2cc(CN(Cc3ccccc3)C(=S)NCCCN(C)C)c(=O)[nH]c12 | inconclusive [inhibitor, single point]
COc1cc(C(=O)N(C)Cc2cccc(OC)c2OC)ccc1OCC(=O)Nc1cccc(C(F)(F)F)c1 | inconclusive [inhibitor, single point]
COc1cccc(-c2cnc3c(NC(C)=O)cc(-c4ccccc4OC)cn23)c1 | inconclusive [inhibitor, single point]
CC(C)(O)c1ccccc1CC[C@@H](SCC1(CC(=O)O)CC1)c1cccc(/C=C/c2ccc3ccc(Cl)cc3n2)c1 | inactive
COc1ccc(F)cc1C(=O)C1CCCN(Cc2ccc3c(c2)OCCO3)C1 (stereo not drawn) | inconclusive [inhibitor, partial curve, poor fit]
CCOC(=O)c1cccc(N2C(=O)C3C4C=CC(CC4)C3C2=O)c1 (stereo not drawn) | active: 3.16 µM
CCOC(=O)C1CCCN(S(=O)(=O)c2ccc(S(=O)(=O)N(CC)CC)cc2)C1 (stereo not drawn) | inconclusive [inhibitor, partial curve, poor fit]
O=C(O)c1ccccc1C(=O)Nc1nc(-c2ccccc2)cs1 | inactive
CN(c1ccc(C(=O)NCc2ccncc2)cc1)S(=O)(=O)c1ccc(Cl)cc1 | inconclusive [inhibitor, partial curve, poor fit]
COc1cc2c(cc1OC)C(c1cc(OC)c(O)c(OC)c1)CC(=O)N2 (stereo not drawn) | inactive
COc1ccc(-c2c(-c3cc(OC)cc(OC)c3)n(C)c3ccc(Br)cc23)cc1 | inconclusive [inhibitor, partial curve, poor fit]
C=CCc1ccc(OCC(O)CN2CCN(c3ccccc3OC)CC2)c(OC)c1 (stereo not drawn) | inconclusive [inhibitor, partial curve, poor fit]

SMILES | Potency
COc1ccccc1CNC(=O)c1cc2cc(S(=O)(=O)N3CCCCC3)ccc2n1C | inconclusive [inhibitor, single point]
CCOC(=O)C1CCCN(C(=O)C2CCN(S(=O)(=O)c3c(C)noc3/C=C/c3ccc(C)cc3)CC2)C1 (stereo not drawn) | inconclusive [inhibitor, single point]
CC(C)N(C)C(=O)c1ccc(OC2CCN(CCc3ccccc3)CC2)cc1 | inconclusive [inhibitor, single point]
Nc1cc(S(=O)(=O)Nc2cc(Cl)ccc2Cl)ccc1N1CCCC1 | inconclusive [inhibitor, partial curve, poor fit]
O=C(NCc1cc(C(F)(F)F)cc(C(F)(F)F)c1)C1CC(c2ccc(C(F)(F)F)cc2)=NO1 (stereo not drawn) | inconclusive [inhibitor, partial curve, poor fit]
COc1ccc(C(C(=O)NC2CCCC2)n2c(C3CCN(C(C)=O)CC3)nc3ccccc32)cc1 (stereo not drawn) | inactive
O=S(=O)(c1ccccc1Cl)N1CCCC1c1nc(-c2cccc(Cl)c2)no1 (stereo not drawn) | inconclusive [inhibitor, single point]
FC(F)(F)c1cccc(Cc2noc(CN3CCCC(CN4CCCC4)C3)n2)c1 (stereo not drawn) | inconclusive [inhibitor, partial curve, poor fit]
Cc1ccccc1-c1nnc(SC(C)C(=O)NC2CCCC2)o1 (stereo not drawn) | inconclusive [inhibitor, partial curve, poor fit]
O=C(O)CC/C(=N/Nc1ccc([N+](=O)[O-])cc1)C(=O)O | inconclusive [inhibitor, full curve]
Cc1c2cnn(CC(=O)NCc3ccc(F)cc3)c(=O)c2c(C)n1Cc1ccccc1Cl | inconclusive [inhibitor, single point]
COC(=O)CSCC(=O)Nc1nnc(-c2cccc(C)c2)s1 | inactive
O=C(Nc1cccc(C(F)(F)F)c1)c1ccc(F)c(S(=O)(=O)N2CCc3ccccc3C2)c1 | inconclusive [inhibitor, full curve]
Cc1cccc(CSC2=CS(=O)(=O)c3ccccc3N2)c1 | inconclusive [inhibitor, partial curve, poor fit]
Cc1cccc(C(=O)Nc2nnc(S(=O)(=O)N3CCCCCC3)s2)c1 | inconclusive [inhibitor, partial curve, poor fit]
COc1ccc(Nc2nc(N3CCN(S(=O)(=O)N(C)C)CC3)nc3ccccc23)cc1 | inconclusive [inhibitor, single point]
O=[N+]([O-])c1cc(C(F)(F)F)ccc1-n1nnc2ccccc21 | inactive
N#Cc1c(-c2ccccc2)cc(-c2cccs2)nc1SCC(=O)O | inconclusive [inhibitor, single point]
CC(c1ccccc1)N(CCC(c1ccccc1)C1CCOC(C)(C)C1)C(=O)c1ccco1 (stereo not drawn) | active: 10 µM
COc1cccc(SCc2noc(C(=O)NCCN(C)C)c2C(=O)NCCN(C)C)c1 | inconclusive [inhibitor, partial curve, poor fit]
CCn1nnnc1SCC(=O)Nc1ccc2c(c1)OCCO2 | inconclusive [inhibitor, single point]

Source: PubChem BioAssay AID624417 (National Center for Advancing Translational Sciences (NCATS), 2012)
